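Results reflect a 48-hour exposure of cells in 96-well plates to compound at five concentrations. The concentration for 50% growth inhibition is given as GI50.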 The source made the active and inactive calls. Rule as the data show it: active = GI50 up to about 1.1 µM and inactive = higher.
Tested on: NCI-H322M
Test: growth of human tumour cells (NCI), 48 h

Question: Which GI50 does the source give for Cc1cc(Cc2cc(Cc3cc(C)cc(C(C)(C)C)c3O)c(C)cc2C)c(O)c(C(C)(C)C)c1 here?
Answer: inactive: 15.5 µM

Question: Which GI50 does the source give for CCOC(=O)c1csc(NC(=O)CN2CCCCC2)n1 here?
Answer: inactive: > 100 µM

Question: For Nc1nc(=O)[nH]c2c1cnn2C1CCCCO1 (stereo unspecified), which GI50 is on record?
Answer: inactive: > 100 µM

Question: How did the GI50 turn out when COC(=O)C1=C(C(=O)OC)SC2(S1)C1=C(CCCC1)SC(C(=O)OC)=C2C(=O)OC was run?
Answer: inactive: 3.56 µM

Question: With OCC1OC(OCC(O)C(O)C(O)C(/C=N/Nc2ccccc2)=N/Nc2ccccc2)C(O)C(O)C1O (stereo unspecified) as the compound, how does the GI50 read?
Answer: inactive: 21.8 µM

Question: For COc1ccc(OC)c(C23CCCC(C2)N(C)CC3)c1 (stereo unspecified), which GI50 is on record?
Answer: inactive: 46.8 µM

Question: For O=C(CC1C=CCS1(=O)=O)NCc1ccccc1 (stereo unspecified), which GI50 is on record?
Answer: inactive: > 100 µM

Question: With O=[N+]([O-])c1ccc(C2SCc3nc4ccccc4n32)cc1 (stereo unspecified) as the compound, how does the GI50 read?
Answer: inactive: > 100 µM

Question: Which GI50 does the source give for CN1C(=O)C(CC=O)(C(C)(C)C)c2ccccc21 (stereo unspecified) here?
Answer: inactive: > 100 µM

Question: With Cc1nc(SCC(N)=O)c2sc(=S)n(-c3ccccc3)c2n1 as the compound, how does the GI50 read?
Answer: inactive: > 10 µM

Question: CC(C)(C)OC(=O)C(C#N)C(=O)c1ccc(C(=O)O)[nH]1 (stereo unspecified) was tested. Which GI50 did it give?
Answer: inactive: 43 µM

Question: Which GI50 does the source give for CCOC(=O)C(=O)CC(=O)C(Br)C(Br)c1ccc(Cl)cc1 (stereo unspecified) here?
Answer: inactive: > 100 µM

Question: Which GI50 does the source give for C#CC(C)(C)OCCCCOc1cc(O)c2c(=O)c3ccccc3n(C)c2c1 here?
Answer: inactive: > 100 µM

Question: Which GI50 does the source give for O=S(=O)(Nc1ccccc1)c1ccc(-c2c3nc(c(-c4ccc(S(=O)(=O)Nc5ccccc5)cc4)c4ccc([nH]4)c(-c4ccc(S(=O)(=O)Nc5ccccc5)cc4)c4nc(c(-c5ccc(S(=O)(=O)Nc6ccccc6)cc5)c5ccc2[nH]5)C=C4)C=C3)cc1 here?
Answer: inactive: 28.6 µM

Question: For COc1cccc2c1CCc1cc3c(N)nc(N)nc3nc1-2, which GI50 is on record?
Answer: inactive: 4.13 µM

Question: How did the GI50 turn out when O=[N+]([O-])c1cc(Cl)c(Cl)cc1[N+](=O)[O-] was run?
Answer: inactive: 15.6 µM

Question: With COC1(OC)CC(CO)(CNc2nc(N)nc(Cl)c2C=O)C1 as the compound, how does the GI50 read?
Answer: inactive: 34.7 µM

Question: Which GI50 does the source give for COc1ccccc1C(=O)NCC1CCCN2CCCCC12 (stereo unspecified) here?
Answer: inactive: > 100 µM

Question: With COc1cc(NC(C)=O)c2[nH]c3c(C)cc(NC(C)=O)c(C)c3c2c1 as the compound, how does the GI50 read?
Answer: inactive: > 100 µM

Question: With CCOC(=O)/C(SC#N)=C(/N)N1CCCC1 as the compound, how does the GI50 read?
Answer: inactive: > 100 µM

Question: With N#Cc1c(-c2ccc([N+](=O)[O-])cc2)c(C#N)c(=O)n(NS(=O)(=O)c2ccccc2)c1O as the compound, how does the GI50 read?
Answer: inactive: > 100 µM

Question: With O=C1C[C@H](c2ccccc2)C2(C(=O)c3ccccc3C2=O)[C@@H](c2ccccc2)C1 as the compound, how does the GI50 read?
Answer: inactive: 66.1 µM

Question: Which GI50 does the source give for Cc1cnc(Cl)nc1C(C#N)c1nc2ccccc2s1 (stereo unspecified) here?
Answer: inactive: 26.9 µM

Question: Which GI50 does the source give for O=[N+]([O-])c1ccc2nc(/C(=N\Nc3ccccc3)C(O)c3ccc4c(c3)OCO4)c(O)nc2c1 (stereo unspecified) here?
Answer: inactive: 72.8 µM

Question: How did the GI50 turn out when CC(=O)NC1CC2Oc3ccc(C)cc3C(C)(O2)C1O (stereo unspecified) was run?
Answer: inactive: > 100 µM

Question: O=C1c2ccccc2C(=O)N1Cc1ccccc1-c1c2nc(c(-c3ccccc3CN3C(=O)c4ccccc4C3=O)c3ccc([nH]3)c(-c3ccccc3CN3C(=O)c4ccccc4C3=O)c3nc(c(-c4ccccc4CN4C(=O)c5ccccc5C4=O)c4ccc1[nH]4)C=C3)C=C2 was tested. Which GI50 did it give?
Answer: inactive: > 100 µM

Question: For O=C1c2ccccc2C(=O)C1(O)c1c[nH]c2ccccc12, which GI50 is on record?
Answer: inactive: > 100 µM

Question: With O=C1NC(=O)C(CC(C(=O)C(=O)Nc2ccccc2Cl)C(=O)c2ccc3ccccc3c2)C(=O)N1 (stereo unspecified) as the compound, how does the GI50 read?
Answer: inactive: > 100 µM

Question: With Clc1ccc(C2ON=C(c3ccccc3)N2C23CC4CC(CC(C4)C2)C3)c(Cl)c1 (stereo unspecified) as the compound, how does the GI50 read?
Answer: inactive: > 10 µM

Question: With O=C1CCC2=C(CCC2)N1CCc1ccc2c(c1)OCO2 as the compound, how does the GI50 read?
Answer: inactive: 51.8 µM

Question: How did the GI50 turn out when CC1(C)Oc2ccc3c(=O)cc(-c4ccc(F)cc4)oc3c2C1C(=O)O (stereo unspecified) was run?
Answer: inactive: > 100 µM

Question: How did the GI50 turn out when CC(C)(C)C(=O)CC1=Nc2ccccc2SC1(O)CC(=O)C(C)(C)C (stereo unspecified) was run?
Answer: inactive: 29.9 µM

Question: How did the GI50 turn out when COC(=O)c1cc(C)n(CN(Cc2ccccc2)Cn2nc(C(=O)OC)cc2C)n1 was run?
Answer: inactive: > 100 µM

Question: How did the GI50 turn out when CN1CCN(CN2C(=O)C3C4C=CC(C3C2=O)C2C(=O)N(CN3CCN(C)CC3)C(=O)C42)CC1 (stereo unspecified) was run?
Answer: inactive: > 100 µM

Question: Which GI50 does the source give for COc1ccc(-n2cnnc2-c2nsc3ccccc23)cc1 here?
Answer: inactive: > 100 µM

Question: For CC(C)(C)OC(=O)C1C(=O)NC(=O)CC1CC(OCc1ccccc1)C(COCc1ccccc1)OCc1ccccc1 (stereo unspecified), which GI50 is on record?
Answer: inactive: 43.9 µM

Question: With CC(=O)Nc1ccc(/C=c2\sc3nnc(/C=C/c4ccccc4)n3c2=O)cc1 as the compound, how does the GI50 read?
Answer: inactive: > 50 µM

Question: For O=C1C(=C2CCCC2)CCC1CN1CCCCC1 (stereo unspecified), which GI50 is on record?
Answer: inactive: > 100 µM

Question: How did the GI50 turn out when CN(N=O)c1nc2c(C(N)=O)ncn2s1 was run?
Answer: inactive: > 100 µM

Question: For CCCc1c2c3ccccc3nc-2nc2ccccn12, which GI50 is on record?
Answer: inactive: 33.9 µM

Question: How did the GI50 turn out when O=C(c1ccc(Cl)cc1Cl)N(/N=C/C=C/c1ccccc1)c1nnc(-c2ccccc2)c(-c2ccccc2)n1 was run?
Answer: inactive: > 100 µM

Question: NC(=O)C12CC3CC(CC(F)(C3)C1)C2 was tested. Which GI50 did it give?
Answer: inactive: > 100 µM

Question: Which GI50 does the source give for O=C1OC(=O)C2C1C(c1ccccc1[N+](=O)[O-])C=C(c1ccco1)N2c1ccncc1 (stereo unspecified) here?
Answer: inactive: 15.8 µM

Question: With Cc1cc(=O)nc(S(=O)(=O)NC(=O)Nc2cccc(Cl)c2)[nH]1 as the compound, how does the GI50 read?
Answer: inactive: > 100 µM

Question: How did the GI50 turn out when Cc1ccc(C)c(COCCOCn2cc(N3CCOCC3)c(=O)[nH]c2=O)c1 was run?
Answer: inactive: > 100 µM

Question: For Cc1cccc(C(C)(C)C)c1NC(=O)CCl, which GI50 is on record?
Answer: inactive: > 100 µM

Question: With N#C/C(=C1\OC(=O)C(c2ccc(Br)cc2)=C1O)c1ccc(Br)cc1 as the compound, how does the GI50 read?
Answer: inactive: 16.4 µM

Question: How did the GI50 turn out when CC(C)CCNc1ncnc2[nH]ncc12 was run?
Answer: inactive: > 100 µM

Question: NCC(O)CNC(=O)c1ccc(-c2ccc(-c3ccc(C(=O)NCC(O)CN)cc3)o2)cc1 (stereo unspecified) was tested. Which GI50 did it give?
Answer: inactive: 20.8 µM

Question: COCCNC1CCC(=O)c2[nH]c3ccccc3c21 (stereo unspecified) was tested. Which GI50 did it give?
Answer: inactive: > 100 µM

Question: With CC(C)C1OC23CCCCC2C(C#N)(C#N)C1(C#N)C(=N)O3 (stereo unspecified) as the compound, how does the GI50 read?
Answer: inactive: 85.9 µM

Question: For CN(C)c1ccc(/N=N/c2ccncc2)cc1, which GI50 is on record?
Answer: inactive: > 100 µM

Question: Which GI50 does the source give for CC(C)(C)NCC(O)c1ccc(O)c(CO)n1 (stereo unspecified) here?
Answer: inactive: > 100 µM

Question: Which GI50 does the source give for COc1c(Cl)nc2ccccc2c1N=[N+]=[N-] here?
Answer: inactive: > 100 µM

Question: Which GI50 does the source give for Nn1c(S)nnc1-c1ccccc1Nc1ccccc1-c1nnc(S)n1N here?
Answer: inactive: > 50 µM

Question: How did the GI50 turn out when CNC(C)(C)Cc1ccc(Cl)cc1 was run?
Answer: inactive: > 100 µM

Question: How did the GI50 turn out when C[C@]12CC/C(=N\OC(=O)Nc3ccccc3)C=C1CC[C@@H]1C2CC[C@@]2(C)C1CC[C@@H]2OC(=O)Nc1ccccc1 (stereo partly specified) was run?
Answer: inactive: > 100 µM

Question: How did the GI50 turn out when CC1=C(C(=O)NNC(=O)CC#N)CC(C(=O)NNC(=O)CC#N)=C(C)N1 was run?
Answer: inactive: > 100 µM

Question: For Nc1cc(N)c(/N=N/c2cccc3c(S(=O)(=O)O)cccc23)cc1/N=N/c1cc([N+](=O)[O-])ccc1O, which GI50 is on record?
Answer: inactive: 34.6 µM

Question: For CC(NNC(=O)c1cc[n+]([BH2-]C#N)cc1)c1ccccc1F (stereo unspecified), which GI50 is on record?
Answer: inactive: 49.9 µM

Question: O=[N+]([O-])C1C2C=CC(C2)[C@H]1c1ccco1 (stereo partly specified) was tested. Which GI50 did it give?
Answer: inactive: > 100 µM

Question: How did the GI50 turn out when CN(c1n[n+]2c(-c3ccccc3)csc2s1)c1n[n+]2c(-c3ccccc3)csc2s1 was run?
Answer: inactive: > 100 µM

Question: How did the GI50 turn out when COc1cc2cc(C(=O)N3CC(CCl)c4c3cc(NC(=O)OCc3ccc([N+](=O)[O-])cc3)c3ccccc43)[nH]c2c(OC)c1OC (stereo unspecified) was run?
Answer: inactive: > 45.6 µM

Question: CCCCCNC(=O)c1cc2cc(CCl)ccc2oc1=O was tested. Which GI50 did it give?
Answer: inactive: 2.65 µM

Question: With COc1cc(CCc2ccc(N)cc2)cc(OC)c1OC as the compound, how does the GI50 read?
Answer: inactive: > 100 µM

Question: With COc1ccc2nc(-c3ccc(N)cc3)sc2c1 as the compound, how does the GI50 read?
Answer: inactive: 39.4 µM

From ChEMBL document CHEMBL1201862, “PubChem BioAssay data set” (2004)
